Test results as given in article PMC5714546 (Journal of molecular biology, 2016).

Experiments:
[1] = target: T1, Myo9b-RhoGAP (residues 1691-1916) V1870A (human, UniProt Q13459-1 1691-1916, V1870A); assay: ITC
T1 sequence (looked up): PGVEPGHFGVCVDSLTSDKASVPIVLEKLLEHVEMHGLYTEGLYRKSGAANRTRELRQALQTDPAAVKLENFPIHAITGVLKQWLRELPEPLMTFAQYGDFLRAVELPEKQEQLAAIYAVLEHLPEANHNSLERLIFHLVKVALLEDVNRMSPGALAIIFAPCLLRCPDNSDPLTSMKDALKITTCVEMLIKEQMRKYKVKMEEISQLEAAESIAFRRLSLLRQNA

[2] = target: T2, Myo9b-RhoGAP (residues 1691-1916) R1776A (human, UniProt Q13459-1 1691-1916, R1776A); assay: ITC
T2 sequence (looked up): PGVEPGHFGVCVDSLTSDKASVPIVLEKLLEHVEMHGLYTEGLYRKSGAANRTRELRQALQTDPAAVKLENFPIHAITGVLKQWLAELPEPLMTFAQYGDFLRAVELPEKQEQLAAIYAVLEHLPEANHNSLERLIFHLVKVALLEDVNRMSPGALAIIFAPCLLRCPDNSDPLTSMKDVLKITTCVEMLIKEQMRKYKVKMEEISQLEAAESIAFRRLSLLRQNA

[3] = target: T3, Myo9b-RhoGAP (residues 1691-1916) R1744E (human, UniProt Q13459-1 1691-1916, R1744E); assay: ITC
T3 sequence (looked up): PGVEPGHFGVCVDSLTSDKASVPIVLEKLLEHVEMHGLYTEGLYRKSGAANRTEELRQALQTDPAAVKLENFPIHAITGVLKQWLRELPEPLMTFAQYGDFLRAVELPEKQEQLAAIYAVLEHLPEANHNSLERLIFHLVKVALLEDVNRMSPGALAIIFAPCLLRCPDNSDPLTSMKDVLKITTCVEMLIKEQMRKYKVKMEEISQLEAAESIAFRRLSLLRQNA

[4] = target: T4, Myo9b-RhoGAP (residues 1691-1916) R1742E (human, UniProt Q13459-1 1691-1916, R1742E); assay: ITC
T4 sequence (looked up): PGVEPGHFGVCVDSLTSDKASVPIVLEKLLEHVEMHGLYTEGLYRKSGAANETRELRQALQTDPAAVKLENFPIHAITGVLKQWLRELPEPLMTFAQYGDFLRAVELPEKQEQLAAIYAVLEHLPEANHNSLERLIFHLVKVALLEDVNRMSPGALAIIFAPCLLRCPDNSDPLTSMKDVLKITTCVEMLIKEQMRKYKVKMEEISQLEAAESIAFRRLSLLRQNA

[5] = target: T5, Myo9b-RhoGAP (residues 1691-1916) I1848A (human, UniProt Q13459-1 1691-1916, I1848A); assay: ITC
T5 sequence (looked up): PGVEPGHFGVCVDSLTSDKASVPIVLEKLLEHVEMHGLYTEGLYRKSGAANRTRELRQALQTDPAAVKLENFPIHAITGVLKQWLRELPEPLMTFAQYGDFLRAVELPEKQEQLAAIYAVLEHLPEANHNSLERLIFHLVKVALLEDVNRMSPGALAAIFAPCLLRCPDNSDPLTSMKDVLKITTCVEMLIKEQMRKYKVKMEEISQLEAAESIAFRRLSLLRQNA

[6] = target: T6, GST-tagged Myo9b-RhoGAP, wild type (human, UniProt Q13459-1 1691-1916); assay: pull-down
T6 sequence (looked up): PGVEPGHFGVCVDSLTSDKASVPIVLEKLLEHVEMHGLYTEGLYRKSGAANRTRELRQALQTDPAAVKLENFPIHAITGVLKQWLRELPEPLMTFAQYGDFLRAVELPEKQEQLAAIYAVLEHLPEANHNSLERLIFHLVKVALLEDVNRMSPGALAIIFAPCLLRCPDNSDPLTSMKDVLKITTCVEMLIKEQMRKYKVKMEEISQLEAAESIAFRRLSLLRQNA

[7] = target: T7, RhoGAP domain of human Myo9b (Myo9b-RhoGAP, residues 1691-1916) (human, UniProt Q13459-1 1691-1916); assay: SEC
T7 sequence (looked up): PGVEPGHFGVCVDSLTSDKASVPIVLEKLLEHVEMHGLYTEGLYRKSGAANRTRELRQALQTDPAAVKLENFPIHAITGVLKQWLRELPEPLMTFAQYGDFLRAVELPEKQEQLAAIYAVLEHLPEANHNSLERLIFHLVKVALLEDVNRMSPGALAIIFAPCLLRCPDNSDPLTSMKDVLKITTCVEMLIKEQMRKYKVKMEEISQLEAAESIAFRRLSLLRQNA

Measured: binding result

B1: human RhoA ([…], F25N) (domain or fragment)
chain: not shown
binds: all assays above
